The results in this text go back to the supplement of paper PMC7125110.

Sequences and labels used below:
B1: glmS ribozyme (parent)
chain: AUAAAAGCGCCAGAACUACAGAAAUGUAGUUGACGAGGAGGAGGUUUAUCGAAUUUUCGGCGGAUGCCUCCAAA

± gives the standard error. Variants at the background level are over-represented here.

The variants in the first data set derive from B1. As to the kind of experiment: self-cleavage kobs at 2500 uM GlcN6P; higher = faster cleavage; RNA array. Particulars: with glucosamine-6-phosphate. The gist of the method:
(§1)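 Barcoded ribozyme variants, transcribed in situ by E. coli RNA polymerase on sequenced MiSeq chips, were followed via a hybridised Cy3 probe at 37 °C. Glucosamine-6-phosphate ranged from 40 μM to 10 mM in HEPES/KCl/Mg(OAc)2 buffer. kobs came from decay fits to per-tile medians, and kcat and KM from weighted Michaelis–Menten fits.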
Take AUAAAAGCGCCAGAAGUACAGAAAUGUAGUUGACGAGCAGGAGGUUUAUCGAAUUUUUGGCGGGUGCCUGCAAA [C16G G38C C58U A64G C70G]: the “self-cleavage kobs at 2500 uM GlcN6P” value is < 1e-05 s⁻¹.
On the same count and under the same terms, as for AUAAAAGCGCCAGAACUACAGAAAUGUAUUUGUCGAGGAGGAGGUUUAUCGAAUUUUCGGCGAUUGCCUCCAAA [G29U A33U G63A A64U], the figure is < 1e-05 s⁻¹; as for AUAAAAGCGCCAGAACUACAGAAAUGUACUUGUCGAGGAGAAGGUUUAUCGAAUUUUCGGCGGAUGCCUCCAAA [G29C A33U G41A], < 1e-05 s⁻¹.
Still for that read-out and setting: as for AUAAAAGCGCCAGAAUUACAGAAAUGUAGUUGACGAGGAGGAGGUCUAUCGAAUUUUCGGGGGAUGCCUCCAAA [C16U U46C C61G], the figure is < 1e-05 s⁻¹; as for AUAAAAGCGCCAGAAAUACAGAAAUGUAGUUGACGAGGAGGACGUUUAUCGAAUUUUCGGCGAUUGCCUCCAAA [C16A G43C G63A A64U], < 1e-05 s⁻¹; as for AUAAAAGCGCCAGAACUACAGAAAUGUACUGGACGAGGAGGAGGUUUAUCGAAUUUUCGGCGGAUGCCUCCAAA [G29C U31G], < 1e-05 s⁻¹.
In the case of AUAAAAGCGCCAGAACUACAGAAAUGUAUUUGACGAGGAGGAGGUUUAUCGAAAUUUCGGCGGAUGCCUACAAA [G29U U54A C70A], the “self-cleavage kobs at 2500 uM GlcN6P” value came out at 6.05e-05 ± 3e-05 s⁻¹.
On to AUAAAAGCGCCAGAAUUACAGAAAUGUAGUUGACGAGGAGGAGGUUUAUCCAAUUUUAGGCGGAUGCCUCCAAA [C16U G51C C58A], for which the “self-cleavage kobs at 2500 uM GlcN6P” value is < 1e-05 s⁻¹.
For the variant AUAAAAGCGCCAGAUCUACAGAAAUGUAGUUGACGAGGAGGAGGUAUAUCGAAUUCCCGGCGGAUGCCUCCAAA [A15U U46A U56C U57C], the “self-cleavage kobs at 2500 uM GlcN6P” value was < 1e-05 s⁻¹.
The same measure, in the same setting: as for AUAAAAGCGCCAGAACUACAGAAAUGUAGAUGACGAGGAGGAGGUUUAUCGAAUUUUCGGCGAAUGCCCCCAAA [U30A G63A U69C], the figure is < 1e-05 s⁻¹; as for AUAAAAGCGCCAGAACUACAGAAAUGUACUUGACGAGGAGGAGGUUUUUCGAAUUUUCGCCGGAUGCCUCCAAA [G29C A48U G60C], < 1e-05 s⁻¹; as for AUAAAAGCGCCAGAAUUACAGAAAUGUAGUUGACGAGGAGGAGGUUUAUCGAAUUUGCGGCUGAUGCCUCCAAA [C16U U57G G62U], < 1e-05 s⁻¹.
Same read-out and setting: then AUAAAAGCGCCAGAAGUACAGAAAUGUACUUGACGAGGAGGAGGUUUAUCGAUUUUUCGGCGGAUGCCUCCAAA [C16G G29C A53U], with 0.00684 ± 0.0022 s⁻¹; and AUAAAAGCGCCAGAUCUACAGAAAUGUAGCUGACGAGGAGGAGCUUUAUCCAAUUUUCGGCGGAUGCCUCCAAA [A15U U30C G44C G51C], with < 1e-05 s⁻¹.
In the case of AUAAAAGCGCCAGAAUUACAGAAAUGUAGUCGACGAGGAGGAGGUCUAUCGAAUUUUCGGCGGAUGCCUUCAAA [C16U U31C U46C C70U], the “self-cleavage kobs at 2500 uM GlcN6P” value is 0.000342 ± 0.00015 s⁻¹.
Same read-out and setting: as for AUAAAAGCGCCAGAAUUACAGAAAUGUAAUUGACGAGGAGUAGGUUUAUCGAAUUUUCGGCAGAUGCCUCCAAA [C16U G29A G41U G62A], the figure is < 1e-05 s⁻¹; as for AUAAAAGCGCCAGAAGUACAGAAAUGUACUGGACGAGGAGGAGGUUUAUCGAAUUUUCGGCGGAUGCCUCCAAA [C16G G29C U31G], 0.00447 ± 0.00064 s⁻¹; as for AUAAAAGCGCCAGAAUUACAGAAAUGUAGUUGACGAGGAGAAGGUUUAUCGAAUUUUCGGCUGAUGCCUCCAAA [C16U G41A G62U], < 1e-05 s⁻¹.
Consider AUAAAAGCGCCAGAACUACAGAAAUGUAGGUGACGAGGAGGAUGUUUAUCGGAUUUUCGGCGGAUGACGCCAAA [U30G G43U A52G C67A U69G], for which the “self-cleavage kobs at 2500 uM GlcN6P” value was < 1e-05 s⁻¹.
Consider AUAAAAGCGCCAGAACUACAGAAAUGUACUUGACGAGGAGGAGGUUUAUCGAAUUUUCGGCCGAAGCCUCCAAA [G29C G62C U65A], for which the “self-cleavage kobs at 2500 uM GlcN6P” value was < 1e-05 s⁻¹.
For the variant AUAAAAGCGCCAGAAUUACAGAAAUGUAGUUGACCAGGAGGAGGUUUAUCGAAUUUUCGGCGUAUGCCUCCAAA [C16U G35C G63U], the “self-cleavage kobs at 2500 uM GlcN6P” value was < 1e-05 s⁻¹.
On to AUAAAAGCGCCAGAACUACAGAAAUGUAGUCGACGAGGAGGAGGUUUAUCGACUCUUCGGCGGAUGCCUCCAAA [U31C A53C U55C], for which the “self-cleavage kobs at 2500 uM GlcN6P” value worked out at 0.000164 ± 5e-05 s⁻¹.
On to AUAAAAGCGCCAGAACUACAGAAAUGUAGAUGACGAGGACGAGGUUUAUCGAAUUUUAGGCGAAUGCCUUCAAA [U30A G40C C58A G63A C70U], for which the “self-cleavage kobs at 2500 uM GlcN6P” value is < 1e-05 s⁻¹.
For the variant AUAAAAGCGCCAGAACUACAGAAAUGUAGAUGACGAGGAGUAGGUUUAUCGAAUUUUCGGCGGAUGCCUGCAAA [U30A G41U C70G], the “self-cleavage kobs at 2500 uM GlcN6P” value came out at 0.00387 ± 0.0011 s⁻¹.
Take AUAAAAGCGCCAGAACUACAGAAAUGUACUUUACGAGGAGGAGGUUUAUCGAAUUUUCGGCGGAUGACUCCAAA [G29C G32U C67A]: the “self-cleavage kobs at 2500 uM GlcN6P” value amounted to 4.32e-05 ± 2e-05 s⁻¹.
Consider AUAAAAGCGCCAGAAAUACAGAAAUGUAGUUGACGAGGAGGAAGUUUAUCGAAUUUUCGACGGAUGCCUGCAAA [C16A G43A G60A C70G], for which the “self-cleavage kobs at 2500 uM GlcN6P” value is < 1e-05 s⁻¹.
The same measure, in the same setting: as for AUAAAAGCGCCAGAACUACAGAAAUGUAGGUGCCGAGGAGGAGGUUUAUCGAAUUUUCGGCGGAUUCCUCCAAA [U30G A33C G66U], the figure is < 1e-05 s⁻¹.
Still for that read-out and setting: then AUAAAAGCGCCAGAACUACAGAAAUGUAGUCGACGAGGAGGAGGUUUAUCGAAUUUUCGGCGGUUUCCUCCAAA [U31C A64U G66U], with < 1e-05 s⁻¹; and AUAAAAGCGCCAGAACUACAGAAAUGUAAUUGACGAGGAGGAGGUUUAUCGAAUUUGCGGCGGAUGCCUGCAAA [G29A U57G C70G], with 0.000123 ± 5e-05 s⁻¹.
As to AUAAAAGCGCCAGAACUACAGAAAUGUAGAUGACAAGGAGGAGGUUUAUCGAAUUUUCGGCGGAUACCUCCAAA [U30A G35A G66A], the “self-cleavage kobs at 2500 uM GlcN6P” value was < 1e-05 s⁻¹.
Regarding AUAAAAGCGCCAGAAAUACAGAAAUGUAGUUGACGACGAGGAGGUUUAUCGAAUUUUCGGCCGAUGCCUCCAAA [C16A G37C G62C], the “self-cleavage kobs at 2500 uM GlcN6P” value was < 1e-05 s⁻¹.
The same measure, in the same setting: as for AUAAAAGCGCCAGAUCUACAGAAAUGUAGUUGACUAGGAGGAGGUUUAUCGAAUUUUUGGCGGAUGCCUCCAAA [A15U G35U C58U], the figure is < 1e-05 s⁻¹; as for AUAAAAGCGCCAGAAGUACAGAAAUGUAGUUGACGACGAGGAGGUUUAUCGAGUUUUCGGCCGAUGCCCCCAAA [C16G G37C A53G G62C U69C], < 1e-05 s⁻¹.

The variants in another data set derive from B1. Nature of the data set: self-cleavage kobs at 10000 uM GlcN6P; higher = faster cleavage; RNA array. Particulars: with glucosamine-6-phosphate. An outline of the steps: as §1
In the case of AUAAAAGCGCCAGAACUACAGAAAUGUACUUGUCGAGGAGAAGGUUUAUCGAAUUUUCGGCGGAUGCCUCCAAA [G29C A33U G41A], the “self-cleavage kobs at 10000 uM GlcN6P” value is < 1e-05 s⁻¹.
As to AUAAAAGCGCCAGAUCUACAGAAAUGUAGUUGACGAGGAGGAGGUAUAUCGAAUUCCCGGCGGAUGCCUCCAAA [A15U U46A U56C U57C], the “self-cleavage kobs at 10000 uM GlcN6P” value is < 1e-05 s⁻¹.
The same measure, in the same setting: then AUAAAAGCGCCAGAACUACAGAAAUGUACUUUACGAGGAGGAGGUUUAUCGAAUUUUCGGCGGAUGACUCCAAA [G29C G32U C67A], with 0.00017 ± 2.6e-05 s⁻¹.
Still for that read-out and setting: then AUAAAAGCGCCAGAAGUACAGAAAUGUAGUUGACGACGAGGAGGUUUAUCGAGUUUUCGGCCGAUGCCCCCAAA [C16G G37C A53G G62C U69C], with < 1e-05 s⁻¹.
